These results are taken from ChEMBL document CHEMBL1157539, “Thousands of chemical starting points for antimalarial lead identification” (Nature, 2010).

Several values for one entry are separate records, joined by “and”; a condition that tells them apart may be missing. Equal values may be shown once. In all, about 13,000 compounds were measured (“IFI”: median about 4, highest 2% from about 17 on). The list shows a part of the results.

This test in a line: GSK_TCMDC: Inhibition Frequency Index (IFI). The number of non-kinase HTS assays where a compound showed > 50 % inhibition, expressed as a percentage of the number of such assays in which the compound was tested (-0 is zero). It counts as functional.
`CCCC(C)Nc1nc(C)cc(NCCC(=O)Nc2ccc(OC)cc2)n1` (centres undefined) had an IFI of 2.27%.

Regarding `O=C(Cn1c(SCc2cccc(F)c2F)cc(=O)c2ccccc21)N(CCN1CCCCC1)Cc1ccc(-c2ccc(C(F)(F)F)cc2)cc1`, the IFI came to 7.19%.

`O=C(Nc1cccc(-c2cccc(-c3nc4cc(F)ccc4[nH]3)c2)c1)c1c[nH]cn1` gave an IFI of 3.74%.

For `N#Cc1cccc(C(=O)Nc2cccc(-c3ccc(C(=O)Nc4cccnc4)cc3)c2)c1`, the IFI was 7.46%.

Turning to `CC(C)(C(=O)NCCC1CCN(CCCCCNC(=O)/C=C/c2ccc(Cl)c(Cl)c2)CC1)c1ccc(Cl)cc1`, the IFI is 8.97%.

`Cc1cccc2nc(-c3ccc(-c4cccc(CNC5CCN(C)CC5)c4)s3)[nH]c12` yielded an IFI of 4.76%.

Take `Cc1cc(N(C)CCCN(C)C)nc(Nc2ccc(Br)cc2)n1`: the IFI was -0%.

For the molecule `CC(C)(CN)c1nc(-c2ccc(Cl)c(O)c2)c(-c2ccnc(N)n2)[nH]1`, the IFI stood at 2.05%.

On to `CC(=O)N[C@@H]1c2cc(C(C)=O)ccc2OC(C)(C)[C@@H]1O`, for which the IFI is -0%.

As for `O=C(NC1CCCC1)c1ccc(N2CCC(NCc3cccc(C(F)(F)F)c3)CC2)cc1`, the IFI came to 5.26%.

As to `CCCc1ccc(NC(=O)c2cccc(CN3CCCN(Cc4cccc(O)c4)CC3)c2)cc1`, the IFI was found to be 4.9%.

`CC1CNC(c2ccc(NC(=O)c3ccc(C(=O)Nc4ccc(C5=NC(C)CN5)cc4)cc3)cc2)=N1` (centres undefined) returned an IFI of 1.47%.

For the molecule `CC(C)CCN1CCCN(Cc2ccc(C(=O)NCc3ccc(Cl)cc3)cc2)CC1`, the IFI came to 1.6%.

For the molecule `OCC1CCN(Cc2cccc(-c3ccc(-c4nc5cc(C(F)(F)F)ccc5[nH]4)s3)c2)CC1`, the IFI was determined as 2%.

Regarding `COc1ccc2nccc([C@@H](O)CN3CCC(NCc4cc5ccccc5[nH]4)CC3)c2n1`, the IFI is 2.88%.

`Cc1c(CNCCCNc2cc(=O)c3ccccc3[nH]2)sc(C(F)=C(F)F)c1Br`: the IFI amounted to 10.9%.

The molecule `CCc1cc2c3c(N)nc(N)nc3ccc2n1C(C)(C)C` showed an IFI of 7.26%.

As for `O=[N+]([O-])c1ccc2c(-c3ccccc3)c(-c3ccccc3)n(O)c2c1`, the IFI was 0.85%.

As to `COc1cc(Nc2nccc(NCC(O)c3ccc(C(F)(F)F)cc3)n2)cc(OC)c1OC` (centres undefined), the IFI is 8.33%.

In turn, `CCCC(C)NC(=O)[C@H](CC1CCCCC1)NC(=O)c1ccc(O)c(-c2ccc(OC)cc2)c1` (some centres undefined) had an IFI of 1.4%.

`CC(=O)Nc1cccc(C(=O)Nc2ccc(-c3cccc(-c4nc5cccc(C)c5[nH]4)c3)cc2)c1` returned an IFI of 5.45%.

For the molecule `O=C(/C=C/c1ccc(Cl)c(Cl)c1)NCCCCCN1CCC(c2c[nH]c3c(-c4ccccc4)cccc23)CC1`, the IFI worked out at 8.09%.

In turn, `O=C(/C=C/c1ccc2ccccc2c1)NCC1(c2ccc(-c3ccccc3)cc2)CCOCC1` gave an IFI of 1.64%.

Turning to `COc1ccc2nccc([C@@H](O)CN3CCC(NCc4cc5ccc(C#N)cc5[nH]4)CC3)c2c1`, the IFI stood at 3.76%.

Take `COc1ccc(N2CCN(c3nc(Nc4ccc(NC(C)=O)cc4)nc(N4CCCC4)n3)CC2)cc1`: the IFI was 2.84%.

Turning to `N#Cc1cccc(C(=O)Nc2cccc(-c3ccc(C(=O)NCCCN4CCOCC4)cc3)c2)c1`, the IFI worked out at 4.55%.

The molecule `CC(C)=CC1C(C(=O)n2c(=N)[nH]c3ccccc32)C1(C)C` (centres undefined) showed an IFI of 2.29%.

Take `CC(C)C[C@H](Nc1ccnc(NCC2CCCCC2)n1)C(=O)Nc1ccccc1`: the IFI came to 13.3%.

In the case of `FC(F)(F)c1ccc2[nH]c(-c3ccc(-c4cccc(CN5CCCCC5)c4)cc3)nc2c1`, the IFI was 2.82%.

Turning to `CC(C)c1ncc(-c2ccncc2)c(C2CCC(CNC(=O)c3cccnc3)CC2)n1` (centres undefined), the IFI worked out at 0%.

The molecule `CC[C@H](C)CNC(=O)c1cncc(-c2ccc(CNC3Cc4ccccc4C3)cc2)c1` gave an IFI of 6.45%.

`CCC(C)(C)C1CCc2nc(N)nc(N)c2C1` (centres undefined) displayed an IFI of 4.08%.

`Cc1nc2sccn2c1C(=O)NCCc1ccccc1Cl` showed an IFI of 2.38%.

Consider `COc1cccc2[nH]c(NCCCNCc3cc(Br)cc(Br)c3)nc12`, for which the IFI is 2.99%.

On to `Cc1cc(N[C@@H](Cc2ccccc2)C(=O)NC2CCCC2)nc(NCc2ccccc2C)n1`, for which the IFI turned out to be 4.88%.

`CCC(C)c1ccc(NC(=O)C(C)c2ccc([N+](=O)[O-])cc2)cc1` (centres undefined) returned an IFI of 23.7%.

`Cc1ccc(NC(=O)c2ccc3ncccc3c2)cc1OC1CCN(C(C)C)C1` (centres undefined) gave an IFI of 1.52%.

Molecule `CC(CN(C)C)C(=O)Nc1ccc(-c2ccc(-c3nc4cc(C(F)(F)F)ccc4[nH]3)cc2)cc1` (centres undefined) had an IFI of 3.6%.

In the case of `CCC[C@@H]([C@@H](CC1CCCCC1)C(=O)N[C@H](C(=O)Nc1nccs1)[C@H](C)O)N(O)C=O`, the IFI was 2.38%.

The molecule `COc1ccccc1CCCON1C(=N)N=C(N)NC1(C)C` gave an IFI of 6.02%.

In turn, `CCn1cc(C(=O)O)c(=O)c2cc(F)c(N3CCN(S(=O)(=O)c4ccc(N)cc4)CC3)cc21` returned an IFI of 1.41%.

Regarding `COc1ccc(S(=O)(=O)N(CCCN2CCN(C)CC2)Cc2csc(-c3ccc(CNCc4ccccc4)cc3)n2)cc1`, the IFI turned out to be 4.83%.

Molecule `O=S(=O)(c1c(Cl)cc(Cl)cc1Cl)N1CCCCC(c2ccc(Cl)cc2)=N1` showed an IFI of 0.78%.

The molecule `O=C(Nc1ccc(CN2CCOCC2)cc1)c1ccc(-c2ccc(Cl)cc2)o1` gave an IFI of 2.78%.

In turn, `CCc1cn2c3c(cc(C(=O)N[C@@H](Cc4ccccc4)[C@H](O)CNC4CCCC4)cc13)N(C)S(=O)(=O)CC2` registered an IFI of 2.92%.

With `CC(C)c1cccc(C(NC(=O)[C@H]2Cc3ccccc3CN2C(=O)c2cccc(N3CCOCC3)c2)C2CCCC2)c1` (some centres undefined), the IFI came to 6.42%.

`C#CCNCc1ccc(-c2ccc(-c3nc4cc(C(F)(F)F)ccc4[nH]3)s2)cc1` showed an IFI of 8.82%.

On to `COc1ccc2nccc([C@@H](O)CN3CCC(NCc4ccc5c(c4)NC(=O)C(C)S5)CC3)c2c1` (some centres undefined), for which the IFI is 0.74%.

Molecule `COc1ccc2nccc([C@@H](O)CN3CCC(NCC(=O)Nc4cc(F)cc(F)c4)CC3)c2n1` had an IFI of 3.65%.

The molecule `COc1cc2nc(N3CCC(CNC(=O)c4ccc(-c5ccc(-c6noc(C)n6)cc5)cc4)CC3)nc(N)c2cc1OC` gave an IFI of 7.27%.

`O[C@@H](c1cc(C(F)(F)F)nc2c(C(F)(F)F)cccc12)[C@H]1CCCCN1`: the IFI is 5.8% and 5.07%.

Consider `Nc1nccc2ccc(-c3ccc(NC(=O)Nc4cc(C(F)(F)F)ccc4F)cc3)cc12`, for which the IFI was determined as 20.2%.

Molecule `CN(C)CCOc1ccc2c(c1)CN(C)CC2c1ccccc1` (centres undefined) returned an IFI of -0%.

In the case of `N=C(NC1CC1)c1ccc2[nH]c(CCCCCc3nc4cc(C(=N)NC5CC5)ccc4[nH]3)nc2c1`, the IFI was -0%.

In the case of `COc1ccc2nccc([C@@H](O)CN3CCC(NCc4cc5cc(C)ccc5s4)CC3)c2c1`, the IFI worked out at 2.16%.

On to `COc1cccc(Nc2nc(C)cc(NC3CCN(Cc4ccccc4)CC3)n2)c1`, for which the IFI is 1.52%.

Consider `c1ccc(COc2ccccc2COc2ccccc2-c2ccc3cccnc3n2)cc1`, for which the IFI was 7.84%.

For the molecule `O=C(NC1CCN(Cc2ccccc2)CC1)c1ccc(-c2nc3cc4ccccc4cc3[nH]2)s1`, the IFI worked out at 2.92%.

Molecule `Cc1cc(N[C@@H](Cc2ccccc2)C(=O)Nc2ccccc2)nc(NCCc2ccccc2)n1` returned an IFI of 12.2%.

`COc1cccc(C(=O)Nc2ccc(Oc3ccc(Cl)cc3)cc2)c1` displayed an IFI of 4.93%.

In the case of `O=C(Cc1ccccc1)NC(CCN1CCC(O)(c2cccc(C(F)(F)F)c2)CC1)c1ccc(Cl)c(Cl)c1` (centres undefined), the IFI stood at 7.48%.

As to `CCC(C)CN1CCN(c2ccc(NC(=O)c3cccs3)cc2)CC1C` (centres undefined), the IFI is 2.86%.

Take `CCCCOc1c(CNCCCCCCNCc2ccc3ccccc3c2OCCCC)ccc2ccccc12`: the IFI is 16.6%.

Consider `CNC(=O)c1cc(Nc2nnc(-c3ccc(C)c(S(=O)(=O)NC4CCCCC4)c3)c3ccccc23)ccc1OC`, for which the IFI was 4.11%.

Molecule `CCCCN1CCN(Cc2cccc(NC(=O)c3ccc(Cl)c(Cl)c3)c2)CC1` registered an IFI of 3.36%.

For the molecule `COc1ccc2nccc(N3CCC(SCCNS(=O)(=O)c4ccc5c(c4)NC(=O)CS5)C3)c2n1` (centres undefined), the IFI came to 8.87%.

The molecule `CC(C)C[C@H](Nc1ccnc(NCC2CCCCC2)n1)C(=O)NCCOc1ccccc1` gave an IFI of 13%.

On to `CCC(C)C#Cc1c(C)nc(N)nc1N` (centres undefined), for which the IFI was determined as 2.22%.

Take `O=C(NC1CCN(Cc2cccc(C(F)(F)F)c2)CC1)c1ccc(-c2cccc(C(F)(F)F)c2)s1`: the IFI was 12.7%.

Consider `COc1ccc(Cl)cc1NC(=O)C(C)N1CCN(S(=O)(=O)c2ccccc2F)CC1` (centres undefined), for which the IFI came out at 0.78%.

Molecule `COc1ccc2nccc([C@@H](O)CN3CCC(NCc4ccc5cccc(O)c5n4)CC3)c2c1` gave an IFI of 8.76%.

For `N=C(N)c1ccc(Nc2nccc(Nc3nc(-c4ccccc4)cs3)n2)cc1`, the IFI was 5.22%.

`CNc1c2c(nc3ccc(NC(=O)CCCCCCc4ccccc4)cc13)CCCC2`: the IFI worked out at 5.67%.

The molecule `Cc1ccc2nc(C)cc(NC(=O)Nc3ccc(N(C)C)cc3)c2c1` had an IFI of 3.68%.

For `O=C(NC1CCN(c2ccnc3cc(Cl)ccc23)C1)c1ccc(F)cc1F` (centres undefined), the IFI is 1.54%.

Molecule `Cc1cc2nc(N=C3NC4(c5ccccn5)NC(=Nc5nc6cc(C)c(C)cc6[nH]5)NC4(c4ccccn4)N3)[nH]c2cc1C` (centres undefined) gave an IFI of 3.68%.

As for `CCCCCCC(C)c1cc(O)c2c(c1)OC(C)(C)C=C2c1ccncc1` (centres undefined), the IFI is 0.72%.

For `Cc1n[nH]c2ccc(-c3cc(OC[C@@H](N)Cc4ccccc4)cnc3-c3cc4ccccc4s3)cc12`, the IFI amounted to 10.9%.

As to `CCN(CC)CCOC(=O)c1ccc(NC(=O)c2cn(-c3ccccc3)nc2-c2cccs2)cc1`, the IFI was found to be 1.48%.

Regarding `C[C@H](Cc1ccc(OCCCOc2ccc(C[C@@H](C)NC[C@H](O)c3cccc(Cl)c3)cc2)cc1)NC[C@H](O)c1cccc(Cl)c1`, the IFI amounted to 13.1%.

On to `Cc1[nH]cnc1CSCCNC(=N)NCCCCCCCCNC(=N)NCCSCc1nc[nH]c1C`, for which the IFI came out at 3.76%.

In turn, `CCCc1cc(Cc2cnc(N)nc2N)ccc1OCCCCCC(=O)OCC` yielded an IFI of 2.16%.

`O=C(Nc1cccc(OC2CCN(Cc3ccccc3)CC2)c1)Nc1cccc([N+](=O)[O-])c1`: the IFI worked out at 2.92%.

In the case of `CCCCOC(=O)c1ccc(NC(=O)Nc2ccc(Cn3ncc(N4CCCNCC4)c(Cl)c3=O)cc2)cc1`, the IFI is 5.97%.

As to `CCc1ccc(CNCC(CCNc2cc(=O)c3ccccc3[nH]2)NCc2cc(Br)cc(Br)c2)o1` (centres undefined), the IFI was found to be 8.03%.

In turn, `CCNCc1ccc(-c2cc3ncnc(Nc4ccc(OCc5cccc(F)c5)c(Cl)c4)c3s2)[nH]1` registered an IFI of 7.87%.

With `O=C(NCc1ccc(C(=O)NCc2cccc3ccccc23)cc1)c1ccc(O)c(-c2ccc(Cl)c(Cl)c2)c1`, the IFI was found to be 0.74%.

With `CCN(CCCN1CCCCC1)c1cc(C)nc(Nc2ccc(Br)cc2F)n1`, the IFI is 3.75%.

Consider `O=C(Nc1ccc(Cl)c(C(F)(F)F)c1)c1ccc(C(=O)Nc2ccc(Cl)c(C(F)(F)F)c2)cc1`, for which the IFI came to 2.76%.
